{"source": "paper PMC6919601", "about": "“Identification of Plasmodium dipeptidyl aminopeptidase allosteric inhibitors by high throughput screening” (PLoS ONE, 2019)", "note": "In all, about 110,000 compounds went through this assay and about 230 (0.21%) showed an effect of 50% or more. This is one part of the list.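 Note: 30 min substrate incubation versus DMSO and 10 µM JCP410 controls.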"}
{"target": "DPAP1 (Plasmodium falciparum, UniProt Q8IIJ9)", "sequence (Q8IIJ9 whole entry, looked up)": "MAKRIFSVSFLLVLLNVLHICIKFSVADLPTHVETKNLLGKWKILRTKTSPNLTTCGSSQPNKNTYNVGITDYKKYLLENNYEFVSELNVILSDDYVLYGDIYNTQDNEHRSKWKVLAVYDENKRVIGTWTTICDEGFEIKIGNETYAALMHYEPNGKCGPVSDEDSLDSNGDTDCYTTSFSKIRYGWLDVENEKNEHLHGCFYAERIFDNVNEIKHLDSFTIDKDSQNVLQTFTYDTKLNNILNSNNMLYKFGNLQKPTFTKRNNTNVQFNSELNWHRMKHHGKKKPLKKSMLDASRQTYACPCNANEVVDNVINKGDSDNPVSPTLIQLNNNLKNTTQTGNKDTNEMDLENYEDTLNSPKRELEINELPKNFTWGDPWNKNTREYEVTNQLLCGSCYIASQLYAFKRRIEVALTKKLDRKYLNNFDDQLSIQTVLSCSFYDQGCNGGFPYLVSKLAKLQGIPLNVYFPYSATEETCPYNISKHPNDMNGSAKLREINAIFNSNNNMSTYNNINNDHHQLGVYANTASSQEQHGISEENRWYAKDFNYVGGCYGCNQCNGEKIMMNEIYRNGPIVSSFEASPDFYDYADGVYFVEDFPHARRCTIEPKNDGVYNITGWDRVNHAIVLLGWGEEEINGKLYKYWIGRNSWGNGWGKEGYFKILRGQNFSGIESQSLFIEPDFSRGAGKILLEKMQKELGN", "assay": "primary screen, percent inhibition; read by cleavage of a fluorogenic dipeptide substrate; higher = more effect of the substance", "set-up": "species or system P. falciparum D10 trophozoite lysates; single well", "units": {"% Inhibition @ 10 uM": "%"}}
{"smiles": "COc1ccc(C(=O)NCCc2ccc(OC)c(OC)c2)cc1", "% Inhibition @ 10 uM": 1.92}
{"smiles": "O=C(CSc1cn(CC(=O)N2CCCC2)c2ccccc12)NCc1ccccc1Cl", "% Inhibition @ 10 uM": 2.46}
{"smiles": "Cc1nc2ccc(S(=O)(=O)N(C)CC(=O)NCCCc3ccccc3)cc2s1", "% Inhibition @ 10 uM": 4.33}
{"smiles": "Cc1ccc(N2C(=O)CC(NCCc3cccc(F)c3)C2=O)cc1", "note": "(stereo not shown)", "% Inhibition @ 10 uM": -0.999}
{"smiles": "COc1ccc(/C=c2/sc3nc(-c4ccc(Cl)cc4)nn3c2=O)c(OC)c1", "% Inhibition @ 10 uM": 3.04}
{"smiles": "CC1(C)CC(O)=C/C(=N/c2cc(-c3ccccc3)[nH]n2)C1", "% Inhibition @ 10 uM": -3.53}
{"smiles": "CCOc1ccc(NC(=O)CNS(=O)(=O)c2ccc(Br)cc2)cc1", "% Inhibition @ 10 uM": -5.7}
{"smiles": "Cc1ccc(-n2nc3c(N4CCC(C(=O)NCCCN5CCOCC5)CC4)nnc(C)c3c2C)cc1", "% Inhibition @ 10 uM": 5.36}
{"smiles": "Cc1cccc(C(=O)Nc2ccccc2C(=O)Nc2ccccc2)c1", "% Inhibition @ 10 uM": 7.09}
{"smiles": "O=C(NCCCCCCNC(=O)c1cc2ccccc2oc1=O)c1cc2ccccc2oc1=O", "% Inhibition @ 10 uM": -3.48}
{"smiles": "O=C(COc1cccc2ccccc12)Nc1ccc(N2CCN(C(=O)c3ccccc3)CC2)cc1", "% Inhibition @ 10 uM": 5.66}
{"smiles": "CC(C)Cn1c(=N)n(CCCOc2ccccc2)c2ccccc21", "% Inhibition @ 10 uM": -3.29}
{"smiles": "Cc1cc(C)c(Cn2c3ccccc3c3cnn(CC(=O)N4CCC(C(N)=O)CC4)c(=O)c32)c(C)c1", "% Inhibition @ 10 uM": -5.19}
{"smiles": "Cc1nnc2c(NCc3ccco3)nc3ccccc3n12", "% Inhibition @ 10 uM": -1.08}
{"smiles": "COc1ccc(-c2cc3ncnc(O)c3s2)cc1", "% Inhibition @ 10 uM": 2.6}
{"smiles": "CC1CC(=N)C(C(=O)CC2CC(=O)NC(=O)C2)=C(O)C1", "note": "(stereo not shown)", "% Inhibition @ 10 uM": 6.39}
{"smiles": "CC(=O)OCC1OC(n2ccc(=O)[nH]c2=O)C(OC(C)=O)C1OC(C)=O", "note": "(stereo not shown)", "% Inhibition @ 10 uM": 0.00178}
{"smiles": "COc1ccc(-c2nc(CS(=O)(=O)CC(=O)NC3CCCC(C)C3C)c(C)o2)cc1", "note": "(stereo not shown)", "% Inhibition @ 10 uM": -9.55}
{"smiles": "CCOC(=O)c1c(C)[nH]c(C)c1S(=O)(=O)N1CCC(C(=O)N2CCCCCC2)CC1", "% Inhibition @ 10 uM": -7.06}
{"smiles": "COc1ccc(-c2cc(C(=O)Nc3nncs3)c3ccccc3n2)c(OC)c1", "% Inhibition @ 10 uM": -1.17}
{"smiles": "Cc1c(C(=O)N2CCOCC2)oc2c1-c1nn(CC(=O)NCC3CCCO3)cc1CC2", "note": "(stereo not shown)", "% Inhibition @ 10 uM": 0.896}
{"smiles": "COc1ccccc1Cn1c(-c2ccccc2)cn2c3c(=O)n(C)c(=O)n(C)c3nc12", "% Inhibition @ 10 uM": -6.2}
{"smiles": "CC1CCN(S(=O)(=O)c2ccc3c(ccn3CCC(=O)NCCc3cccs3)c2)CC1", "% Inhibition @ 10 uM": 6.41}
{"smiles": "COCCn1c(CCC(=O)O)ccc1-c1cccs1", "% Inhibition @ 10 uM": -8.61}
{"smiles": "CCNc1nc(NCC)nc(Oc2ccc(OCC)nn2)n1", "% Inhibition @ 10 uM": -8.96}
{"smiles": "Cc1cc(C)cc(OCC(=O)N(Cc2nc(-c3ccc(Cl)cc3)no2)C(C)C)c1", "% Inhibition @ 10 uM": 2.78}
{"smiles": "COc1ccc(S(=O)(=O)N2CCC(C(=O)N3CCOCC3)CC2)cc1OC", "% Inhibition @ 10 uM": -3.74}
{"smiles": "O=c1c2c(nc3n1CCCCC3)sc1c(O)c(Br)ccc12", "% Inhibition @ 10 uM": 5.54}
{"smiles": "CCOc1ccc(/C=C(\\C#N)C(=O)Nc2nc3ccc(S(C)(=O)=O)cc3s2)cc1OC", "% Inhibition @ 10 uM": -3.28}
{"smiles": "Cc1ccc(NC2=NC(=O)C(CC(=O)Nc3ccc(F)cc3)S2)cc1Cl", "note": "(stereo not shown)", "% Inhibition @ 10 uM": 3.17}
{"smiles": "CCN(CC)C(=O)Cn1cc(SCC(=O)N2CC(C)OC(C)C2)c2ccccc21", "note": "(stereo not shown)", "% Inhibition @ 10 uM": -6.16}
{"smiles": "CN(C(=O)Cn1c(=O)n(Cc2ccccc2)c(=O)c2c3c(sc21)CCC3)C1CCCCC1", "% Inhibition @ 10 uM": -1.29}
{"smiles": "COc1ccc(Br)cc1CN1CCN(C(=O)c2ccc(OC)c(OC)c2)CC1", "% Inhibition @ 10 uM": -0.48}
{"smiles": "COc1cc(C)c(CN2CCN(c3ccc(Cl)cc3)CC2)cc1C", "% Inhibition @ 10 uM": -3.56}
{"smiles": "Cc1cc(NC(=O)CSc2nc3c(cc2C#N)CCCCC3)no1", "% Inhibition @ 10 uM": 1.31}
{"smiles": "CS/C(=N\\Cc1ccccc1)Nc1[nH]nc(C)c1-c1ccccc1F", "% Inhibition @ 10 uM": 0.913}
{"smiles": "CC(C)(C)c1ccccc1OCC(=O)NCC1CCCO1", "note": "(stereo not shown)", "% Inhibition @ 10 uM": 5.51}
{"smiles": "COc1cccc(NC(=O)C2CCCC2)c1", "% Inhibition @ 10 uM": 5.26}
{"smiles": "CCCCOc1ccc(C(=O)Nc2ccc(C(C)=O)cc2)cc1", "% Inhibition @ 10 uM": -5.26}
{"smiles": "CN1CCC(N(C)Cc2cccc(Oc3ccc(Cl)cc3)c2)CC1", "% Inhibition @ 10 uM": -4.94}
{"smiles": "CC(C)c1cc(C(C)C)c(S(=O)(=O)NCCCO)c(C(C)C)c1", "% Inhibition @ 10 uM": -5.5}
{"smiles": "CCCCC1CC(C)(/C(C)=N/NC(N)=S)OC1=O", "note": "(stereo not shown)", "% Inhibition @ 10 uM": -3.4}
{"smiles": "CCOc1cc(C(=O)NCc2nc(-c3ccccc3)no2)cc(OCC)c1OCC", "% Inhibition @ 10 uM": 2.14}
{"smiles": "CC(C)Cc1cc(-c2ccccc2)c(C#N)c(N)n1", "% Inhibition @ 10 uM": -1.76}
{"smiles": "CCN1CCN(S(=O)(=O)c2cc(Br)cnc2N)CC1", "% Inhibition @ 10 uM": 5.48}
{"smiles": "CSc1nc(C)cc(-c2ccccc2)c1C#N", "% Inhibition @ 10 uM": 4.09}
{"smiles": "COc1cc(NC(=O)C(c2ccccc2)c2ccccc2)c(OC)cc1NC(=O)C(c1ccccc1)c1ccccc1", "% Inhibition @ 10 uM": -2.22}
{"smiles": "CCOC(=O)c1c(C)c(C(=O)N(CC)C2CCCCC2)c(C)n1C", "% Inhibition @ 10 uM": -5.27}
{"smiles": "Cc1cc2ncn(CC(O)COc3cccc(Cl)c3)c2cc1C", "note": "(stereo not shown)", "% Inhibition @ 10 uM": -0.053}
{"smiles": "Cc1ccc(-n2ncc3c(NC(C)C)ncnc32)cc1", "% Inhibition @ 10 uM": 4.61}
{"smiles": "CCOC(=O)c1sc(NC(=O)/C=C/c2ccc(OCC)cc2)nc1C", "% Inhibition @ 10 uM": -5.2}
{"smiles": "N#CCNC(=O)[C@H](CSCc1ccccc1)NC(=O)c1ccc2c(c1)OCO2", "% Inhibition @ 10 uM": -3.49}
{"smiles": "Cc1ccc2cc(NC(=O)c3ccccc3)ccc2n1", "% Inhibition @ 10 uM": 0.823}
{"smiles": "CCc1ccc(S(=O)(=O)c2nnn(-c3ccc(C)cc3)c2N)cc1", "% Inhibition @ 10 uM": 0.351}
{"smiles": "CCOc1ccccc1NC(=O)CC(C)(C)C", "% Inhibition @ 10 uM": 3.81}
{"smiles": "Cc1ccc(C2CC(C(F)(F)F)n3nc(C(=O)N4CCC(C)CC4)cc3N2)cc1", "note": "(stereo not shown)", "% Inhibition @ 10 uM": 4.86}
{"smiles": "NS(=O)(=O)c1ccc(CCNC(=O)CCCNS(=O)(=O)c2cccs2)cc1", "% Inhibition @ 10 uM": -0.503}
{"smiles": "Cc1cccc(CN2CCN(c3ccc(Cl)cc3)CC2)c1", "% Inhibition @ 10 uM": -5.57}
{"smiles": "Clc1ccc(OCCCn2ccnc2)c2ccccc12", "% Inhibition @ 10 uM": 2.22}
{"smiles": "Cc1ccc(C)n1-c1cc(C(=O)O)ccc1Cl", "% Inhibition @ 10 uM": -4.11}
{"smiles": "Cc1ccc(CS(=O)Cc2ccc(C(=O)O)o2)cc1", "note": "(stereo not shown)", "% Inhibition @ 10 uM": -3.78}
{"smiles": "CCCCCC(=O)CCn1c(=O)sc2ccccc21", "% Inhibition @ 10 uM": -4.95}
{"smiles": "CC1CC(C)CN(C(=O)CCc2nnc3ccc(N4CCOCC4)nn23)C1", "note": "(stereo not shown)", "% Inhibition @ 10 uM": -6.16}
{"smiles": "CC(=O)c1ccc(N2CCN(Cc3ccc(C(F)(F)F)cc3)CC2)cc1", "% Inhibition @ 10 uM": 1.83}
